The list shows a part of the results. Most values come without repeats; read them as rough.
Legend:
Assay in all cases: cell count relative to DMSO control; melanoma cells; higher = more viable cells
Settings in all cases: library dose: standard library concentration; 72 h
G361 = test system: G361
IPC-298 = test system: IPC-298
IST-MEL1 = test system: IST-MEL1
LB2518-MEL = test system: LB2518-MEL
LOXIMVI = test system: LOXIMVI
MEL-HO = test system: MEL-HO
MZ2-MEL = test system: MZ2-MEL
MeWo = test system: MeWo
RPMI7951 = test system: RPMI7951
RVH-421 = test system: RVH-421
SkMel28 = test system: SkMel28
SkMel2 = test system: SkMel2
SkMel30 = test system: SkMel30
SkMel5 = test system: SkMel5
UACC257 = test system: UACC257
UACC62 = test system: UACC62
WM115 = test system: WM115
WM1716 = test system: WM1716
WM1745 = test system: WM1745
WM3526 = test system: WM3526
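Further: cells treated in 1,536-well plates, then fixed and DAPI-stained, with nuclei counted from automated high-throughput microscope images.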

| Compound | cell count (G361) [%] | cell count (IPC-298) [%] | cell count (IST-MEL1) [%] | cell count (LB2518-MEL) [%] | cell count (LOXIMVI) [%] | cell count (MEL-HO) [%] | cell count (MZ2-MEL) [%] | cell count (MeWo) [%] | cell count (RPMI7951) [%] | cell count (RVH-421) [%] | cell count (SkMel28) [%] | cell count (SkMel2) [%] | cell count (SkMel30) [%] | cell count (SkMel5) [%] | cell count (UACC257) [%] | cell count (UACC62) [%] | cell count (WM115) [%] | cell count (WM1716) [%] | cell count (WM1745) [%] | cell count (WM3526) [%] |
| --- | --- | --- | --- | --- | --- | --- | --- | --- | --- | --- | --- | --- | --- | --- | --- | --- | --- | --- | --- | --- |
| CN(NC(=O)CC(=O)NN(C)C(=S)c1ccccc1)C(=S)c1ccccc1 + C/C(O)=C(\C#N)C(=O)Nc1cc(Br)ccc1Br [LFM-A13] (first compound 0.03 µM, partner dose 10 µM) | 33.8 | 69.4 | 46.6 | 21.9 | 79.6 | 84.5 | 86.7 | 16.6 | 81.2 | 73.5 | 15.4 | 69.2 | 89 | 38.5 | 93.8 | 42.3 | 19.4 | 82.8 | 37.6 | 74.2 |
| O=C(Oc1ccc([N+](=O)[O-])cc1)N1CCC(C(O)(c2ccc3c(c2)OCO3)c2ccc3c(c2)OCO3)CC1 + O=c1cc(-c2cccc3c2Sc2ccccc2S3)oc(N2CCOCC2)c1 [KU55933] (first compound 5 µM, partner dose 5 µM) | 74.8 | 84.5 | 91.3 | 113 | 104 | 81.1 | 85.2 | 84.3 | 70 | 101 | 66 | 85.5 | 77.5 | 88.9 | 85.6 | 70.2 | 95.8 | 77.7 | 94.3 | 55.6 |
| O=S(=O)(c1ccccc1)N(CC(F)(F)F)c1ccc(C(O)(C(F)(F)F)C(F)(F)F)cc1 + Cc1cc(SCc2sc(-c3ccc(C(F)(F)F)c(F)c3)nc2C)ccc1OCC(=O)O [GW0742] (first compound 7 µM, partner dose 10 µM) | 66.8 | 86.2 | 107 | 109 | 93.2 | 96.1 | 100 | 91.8 | 35.6 | 94 | 80.1 | 92.1 | 112 | 76.3 | 84.1 | 83.4 | 105 | 122 | 83.1 | 82.6 |
| C/C(O)=C(\C#N)C(=O)Nc1cc(Br)ccc1Br + O=C(Oc1ccc([N+](=O)[O-])cc1)N1CCC(C(O)(c2ccc3c(c2)OCO3)c2ccc3c(c2)OCO3)CC1 [JZL184] (first compound 10 µM, partner dose 5 µM) | 98.4 | 96.2 | 102 | 123 | 94.3 | 90.6 | 82.1 | 90.4 | 96.5 | 81.8 | 95.7 | 94.1 | 86.2 | 84 | 83.1 | 87.9 | 68.5 | 86 | 102 | 84.3 |
| NC(=O)c1ccc(N(C(N)=O)c2c(F)cccc2F)nc1-c1ccc(F)cc1F + C[As](C)SC[C@H](NC(=O)CC[C@H](N)C(=O)O)C(=O)NCC(=O)O [Darinaparsin] (first compound 2 µM, partner dose 2 µM) | 80.7 | 92.2 | 104 | 79.6 | 110 | 96.8 | 98.4 | 67.1 | 145 | 142 | 80.2 | 104 | 76 | 59.6 | 102 | 92.8 | 87.1 | 83.9 | 112 | 74.7 |
| NC(=O)Nc1cc(-c2cccc(F)c2)sc1C(=O)N[C@H]1CCCNC1 + O=C(Oc1ccc([N+](=O)[O-])cc1)N1CCC(C(O)(c2ccc3c(c2)OCO3)c2ccc3c(c2)OCO3)CC1 [JZL184] (first compound 0.1 µM, partner dose 5 µM) | 98.3 | 96.2 | 113 | 67.2 | 90.1 | 93.8 | 103 | 75.4 | 44 | 32.8 | 42.5 | 93.9 | 64.7 | 102 | 102 | 65.6 | 76.4 | 54 | 78.8 | 59.7 |
| O=C(Oc1ccc([N+](=O)[O-])cc1)N1CCC(C(O)(c2ccc3c(c2)OCO3)c2ccc3c(c2)OCO3)CC1 + CC(C)CCN1c2nc(Nc3cc(F)c(O)c(F)c3)ncc2N(C)C(=O)C1C [BID1870] (first compound 5 µM, partner dose 1 µM) | 92.1 | 87.8 | 101 | 134 | 93.1 | 79.1 | 116 | 78.8 | 96.2 | 82.8 | 83.4 | 82.5 | 97.4 | 76.2 | 90.6 | 75.9 | 105 | 94.3 | 93.2 | 75.1 |
| O=C(Nc1ccccc1)c1cc([N+](=O)[O-])ccc1Cl + Cc1cc(SCc2sc(-c3ccc(C(F)(F)F)c(F)c3)nc2C)ccc1OCC(=O)O [GW0742] (first compound 10 µM, partner dose 10 µM) | 81.6 | 96.1 | 99.6 | 65 | 51.5 | 83.7 | 80.3 | 75.6 | 40.8 | 85.9 | 91.6 | 91.1 | 85 | 80.3 | 82.5 | 86 | 90.7 | 122 | 67.6 | 98.7 |
| O=C(Nc1cc(C(F)(F)F)cc(C(F)(F)F)c1)c1cc(Cl)ccc1O + C[As](C)SC[C@H](NC(=O)CC[C@H](N)C(=O)O)C(=O)NCC(=O)O [Darinaparsin] (first compound 0.08 µM, partner dose 2 µM) | 82.5 | 85.4 | 117 | 71.4 | 116 | 90.1 | 92.5 | 85.1 | 113 | 93.6 | 80 | 116 | 89.2 | 63.4 | 83.8 | 80.5 | 87.2 | 72.3 | 95.9 | 68 |
| COc1cc2c(Oc3ccc4[nH]c(C)cc4c3F)ncnc2cc1OCCCN1CCCC1 [cediranib] + C/C(O)=C(\C#N)C(=O)Nc1cc(Br)ccc1Br [LFM-A13] (first compound 2 µM, partner dose 10 µM) | 89.1 | 91.5 | 129 | 73.6 | 56.3 | 106 | 101 | 103 | 110 | 94.8 | 86.9 | 95.8 | 88.3 | 56.5 | 108 | 95.1 | 110 | 108 | 87.1 | 83.4 |
| C/C(O)=C(\C#N)C(=O)Nc1cc(Br)ccc1Br + Cn1cc(/C=C2\C(=O)Nc3cccnc32)c2ccccc21 [GW441756] (first compound 10 µM, partner dose 2 µM) | 82.3 | 85.6 | 102 | 111 | 104 | 98.5 | 81 | 85 | 97.4 | 123 | 82.9 | 93.6 | 108 | 71.9 | 86.1 | 81.8 | 72.9 | 93.1 | 80.9 | 76.9 |
| CCc1ccc(CCOc2ccc(CC3SC(=O)NC3=O)cc2)nc1 (stereo not given) [pioglitazone] + Cc1cc(SCc2sc(-c3ccc(C(F)(F)F)c(F)c3)nc2C)ccc1OCC(=O)O [GW0742] (first compound 10 µM, partner dose 10 µM) | 78.6 | 87.5 | 103 | 82.3 | 80.2 | 81.3 | 101 | 102 | 86.9 | 21.1 | 84.9 | 87.9 | 103 | 77.6 | 83 | 92.1 | 74.7 | 117 | 84.5 | 92.9 |
| Cc1cn(-c2cc(NC(=O)c3ccc(C)c(Nc4nccc(-c5cccnc5)n4)c3)cc(C(F)(F)F)c2)cn1 [nilotinib] + C[As](C)SC[C@H](NC(=O)CC[C@H](N)C(=O)O)C(=O)NCC(=O)O [Darinaparsin] (first compound 1 µM, partner dose 2 µM) | 67.7 | 90.2 | 76.8 | 79.4 | 118 | 81.7 | 79 | 80 | 91.3 | 50.8 | 87.8 | 89.3 | 87.6 | 63.9 | 88.6 | 70.8 | 79.8 | 78.2 | 75.9 | 69 |
| Cc1cc(SCc2sc(-c3ccc(C(F)(F)F)c(F)c3)nc2C)ccc1OCC(=O)O + COc1cc(N2CCC(N3CCN(C)CC3)CC2)ccc1Nc1ncc(Cl)c(Nc2ccccc2S(=O)(=O)C(C)C)n1 [NVP-TAE684] (first compound 10 µM, partner dose 0.4 µM) | 98 | 97.7 | 102 | 113 | 81 | 90.8 | 87.6 | 71.8 | 90.8 | 85.6 | 110 | 75.3 | 96.9 | 71.5 | 83.2 | 113 | 86.7 | 67.2 | 75.6 | 78.5 |
| COc1ccc(C2=N[C@@H](c3ccc(Cl)cc3)[C@@H](c3ccc(Cl)cc3)N2C(=O)N2CCNC(=O)C2)c(OC(C)C)c1 [Nutlin-3] + N.N.[Cl][Pt][Cl] [cisplatin] (first compound 0.5 µM, partner dose 8 µM) | 73.4 | 85.8 | 91.8 | 73.5 | 41.3 | 76.5 | 86.8 | 82.2 | 83 | 67.1 | 83.9 | 84.2 | 98.5 | 71.3 | 70.5 | 60.4 | 79.7 | 78.6 | 77.3 | 90.4 |
| O=C(Oc1ccc([N+](=O)[O-])cc1)N1CCC(C(O)(c2ccc3c(c2)OCO3)c2ccc3c(c2)OCO3)CC1 + CCCCCCCCCCCC1=C(O)C(=O)C=C(O)C1=O [Embelin] (first compound 5 µM, partner dose 6 µM) | 60.9 | 90 | 60.2 | 99.1 | 84.8 | 73.5 | 96.8 | 96.4 | 65 | 61.9 | 135 | 93.3 | 89.8 | 91.3 | 85.7 | 94.1 | 93.1 | 98.2 | 75.9 | 88.2 |
| C=C(c1ccc(C(=O)O)cc1)c1cc2c(cc1C)C(C)(C)CCC2(C)C [Bexarotene] + C[As](C)SC[C@H](NC(=O)CC[C@H](N)C(=O)O)C(=O)NCC(=O)O [Darinaparsin] (first compound 10 µM, partner dose 2 µM) | 86.4 | 82.7 | 92.8 | 95.2 | 166 | 98.1 | 82.8 | 85.8 | 68.3 | 67.5 | 76.9 | 87.5 | 96.4 | 107 | 76.4 | 81.2 | 113 | 66.1 | 96.8 | 68.4 |

— the supplement of paper PMC4604168 (melanoma cell lines)
